# According to PubChem BioAssay AID651820 (National Center for Advancing Translational Sciences (NCATS), 2012):
# Out of some 340,000 compounds screened, about 12,000 (3.5%) were called active. The shares of active, inactive and inconclusive entries below differ from those in the screen. The call rests on the fitted dose curve; in most records, active means well fitted inhibition curve with a large enough effect; inconclusive means small, poorly fitted or top-dose-only effect, or another doubt; inactive means no such curve, though single readings can be large or run the other way. No potency is given beside an inconclusive call; the fits are too rough.
# Test: qHTS Assay for Inhibitors of Hepatitis C Virus (HCV)
# Settings: Huh7.5.1 HCVcc-Cre (HCVcc is cell-culture hepatitis C virus) infection, luciferase reporter, 44 h; series mostly up to 41.8 µM
# How it was run: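 Infectious HCV cell culture screen: compound-treated cells (1,000/well, pre-plated 4 h) are infected with HCVcc-Cre at roughly 0.5 moi and grown 44 h. Infection is quantified by luciferase signal after 15 min substrate incubation at room temperature.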
# Potency means the concentration at half of the fitted maximal effect; tags describe the fitted curve by direction and shape.
row,Compound,Potency
1,CC1(C)CC(=O)C(C=NCCN2CCN(CC(=O)Nc3ccc(Cl)cc3)CC2)=C(O)C1,active: 12.6 µM
2,COc1ccc(NC(=O)Nc2ccc3c(c2)CCC3)c(OC)c1,"inconclusive [inhibitor, partial curve]"
3,Cc1ccc(NS(=O)(=O)c2ccc(NC(=O)C3CCCO3)cc2)cc1 (stereo unspecified),"inconclusive [inhibitor, single point]"
4,O=C(Nc1ccc(Cl)cc1)c1ccc2c(=O)n3c(nc2c1)CCCCC3,"inconclusive [inhibitor, single point]"
5,CC(C)CCN(C(=O)C1=COCCO1)c1c(N)n(Cc2ccccc2)c(=O)[nH]c1=O,inactive
6,N/C(Cc1ccc(Cl)cc1)=N\OC(=O)c1ccc2ccccc2c1,active: 31.6 µM
7,COC(=O)/C(=C\c1cc(OC)c(OC)c(OC)c1)c1nc2ccccc2[nH]1,"inconclusive [inhibitor, partial curve]"
8,c1ccc(CNc2nc(NCc3ccccc3)c3ccccc3n2)cc1,"inconclusive [inhibitor, single point]"
9,Clc1ccc(-c2nc3ccncc3[nH]2)cc1,inactive
10,Cc1cccn2c(=O)c3cc(C(=O)N4CCN(C(=O)c5ccco5)CC4)n(C)c3nc12,"inconclusive [inhibitor, full curve, poor fit]"
11,Cc1cccn2c(=O)c(/C=C(\C#N)C(N)=O)c(N3CCN(Cc4ccc5c(c4)OCO5)CC3)nc12,"inconclusive [inhibitor, single point]"
12,CCOC(=O)c1c(N)sc(C(=O)Nc2ccc3c(c2)OCO3)c1C,"inconclusive [inhibitor, partial curve]"
13,O=C(NCc1cccc(Cl)c1)c1cccc(S(=O)(=O)N2CCCCC2)c1,"inconclusive [inhibitor, single point]"
14,COc1ccc(C)cc1NC(=O)C(Sc1nnc(Nc2cc(C)ccc2OC)s1)c1ccccc1 (stereo unspecified),active: 10 µM
15,Cc1ccc(C)c(N2CCN(c3ncccc3[N+](=O)[O-])CC2)c1,active: 11.2 µM
16,Cc1nnc(NC(=O)C2CCN(C(=O)c3ccco3)CC2)s1,inactive
17,CN1/C(=C\C(=O)c2ccco2)C(C)(C)c2ccccc21,active: 11.2 µM
18,COc1ccc([C@H]2/C=C\CN(S(=O)(=O)c3ccc4ccccc4c3)[C@@H](C)C(=O)N2Cc2ccc(F)cc2)cc1,"inconclusive [inhibitor, partial curve]"
19,CCN(CC)S(=O)(=O)c1ccccc1/C=N\O,inactive
20,Cc1cc(C(=O)O)c(C)n1-c1ccccc1,inactive
21,Cc1ccc([N+](=O)[O-])cc1NC(=O)c1ccc(C(C)(C)C)cc1,"inconclusive [inhibitor, partial curve, poor fit]"
22,COc1ccccc1NC(=O)CCc1nnc2ccc(N3CCC4(CC3)OCCO4)nn12,inactive
23,COc1ccc(C(=O)Nc2cccc(/C=C/c3nc4ccccc4c(=O)[nH]3)c2)cc1,active: 1.26 µM
24,COc1ccc(OC)c2c(C)cc(N3CCCN(C)CC3)nc12,"inconclusive [inhibitor, single point]"

row,Compound,Potency
1,O=C(c1cc2ccccc2o1)N(Cc1nnc(-c2ccccc2Cl)o1)C1CC1,"inconclusive [inhibitor, partial curve]"
2,O=C1OCCC1Sc1nnc(-c2ccc(F)cc2)n1Cc1ccccc1 (stereo unspecified),"inconclusive [inhibitor, single point]"
3,COc1ccc(S(=O)(=O)N2CCN(CC(=O)N3CCc4ccccc4C3)CC2)cc1OC,"inconclusive [inhibitor, single point]"
4,Cc1cc(Br)c(OCc2ccc(C(=O)N/N=C3\CC4CC=CC34)cc2)c(Br)c1 (stereo unspecified),"inconclusive [inhibitor, full curve, poor fit]"
5,N#Cc1nc(-c2ccccc2Cl)oc1NCc1ccco1,"inconclusive [inhibitor, single point]"
6,CC1CCN(c2oc(Cc3cccc4ccccc34)nc2C#N)CC1,"inconclusive [inhibitor, partial curve]"
7,COCCCn1c(SCC(=O)Nc2oc(C)c3c(C)n[nH]c(=O)c23)nc2sc3c(c2c1=O)CCC3,inactive
8,CC(C)Sc1nc2c([nH]c3ccccc32)c(=O)n1C,inactive
9,CCC1CCCCN1C(=O)CSc1nnc(-c2c[nH]c3ccccc23)o1 (stereo unspecified),"inconclusive [inhibitor, single point]"
10,COc1ccccc1C1CC(=O)Nc2cc(C)c(C)cc21 (stereo unspecified),"inconclusive [inhibitor, partial curve]"
11,N#Cc1c(-c2ccco2)cc(-c2ccc(F)cc2)nc1N,"inconclusive [inhibitor, partial curve]"
12,CN1C(=O)NC(=O)/C(=C/c2ccc([N+](=O)[O-])o2)C1=O,inactive
13,CCOC(=O)C1=NNC(C(=O)c2ccc(Cl)cc2)C1c1ccc(OC)cc1 (stereo unspecified),"inconclusive [inhibitor, single point]"
14,CCC(NC(=O)Nc1cc(OC)c(OC)c(OC)c1)(C(F)(F)F)C(F)(F)F,inactive
15,CCc1ccc(/C=C2/SC(N3CCOCC3)=NC2=O)cc1,inactive
16,Cc1cc(C(=O)CCl)c(C)n1-c1ccon1,"inconclusive [inhibitor, single point]"
17,OCCN1CCN(c2cc(-c3ccccc3)c3ccccc3n2)CC1,"inconclusive [inhibitor, single point]"
18,COCCNC(=S)N/N=C(\C)c1ccc(Cl)s1,"inconclusive [inhibitor, single point]"
19,Cc1cc(C(=O)CSc2nc3ccccc3[nH]2)c(C)n1Cc1ccco1,"inconclusive [inhibitor, full curve]"
20,COc1ccc(CN(C)C(=O)c2cc(-c3ccccc3)nc3ccc(C)cc23)c(OC)c1OC,active: 10 µM
21,CN1C[C@@H]2C(c3ccc(C(F)(F)F)cc3)C3(c4cccnc4)CC2(C3)[C@H]1c1ccccc1 (stereo partly specified),inactive
22,S=c1[nH]nc(-c2cccc(Cl)c2)n1CCN1CCCCC1,inactive
23,CC(=O)Nc1ccc2c(c1)Cc1c(F)cccc1-2,active: 10 µM
24,Cc1nc(N/N=C/c2ccccn2)sc1C,"inconclusive [inhibitor, single point]"

row,Compound,Potency
1,COc1ccc(C(C)=O)cc1CSc1nnc(C)s1,inactive
2,O=C(COc1ccc(Cl)cc1)Nc1ccc2c(c1)OCO2,"inconclusive [inhibitor, partial curve]"
3,CCN(Cc1ccccc1)C(=O)c1cccnc1,"inconclusive [inhibitor, full curve, poor fit]"
4,CCN(CC)CCNc1cc(C)nc2c1C(=O)C(=O)C=C2N1CCCCC1,"inconclusive [inhibitor, single point]"
5,O=C(N[C@@H](Cc1ccccc1)C(=O)N1CCN(S(=O)(=O)c2ccccc2F)CC1)c1ccco1,"inconclusive [inhibitor, full curve, poor fit]"
6,C=CCn1c(=N)n(CC(=O)OC)c2ccccc21,inactive
7,O=C(COCC(=O)Nc1cccc(C(F)(F)F)c1)Nc1cccc(C(F)(F)F)c1,"inconclusive [inhibitor, single point]"
8,COc1ccc2oc(C)c(C(=O)NN)c2c1,inactive
9,Cc1ccccc1C(=O)N1CCN(c2ncnc3c2cnn3-c2ccccc2)CC1,active: 7.94 µM
10,FC(F)(F)c1cccc(NC(=S)Nc2cccc(Cl)c2)c1,"inconclusive [inhibitor, full curve, poor fit]"
11,Cc1onc(-c2ccccc2)c1C(=O)NCCc1ccncc1,inactive
12,COc1ccccc1-n1cnnc1SCc1csc(-c2ccccc2)n1,"inconclusive [inhibitor, single point]"
13,COc1ccc(C(=O)Nc2ccc3c4c(cccc24)CC3)cc1,"inconclusive [inhibitor, partial curve]"
14,O=C1CSC(c2nn(-c3ccccc3)cc2-c2cc3ccccc3oc2=O)N1Cc1ccco1 (stereo unspecified),"inconclusive [inhibitor, partial curve]"
15,Cc1cc(NC(=O)c2cc([N+](=O)[O-])cc([N+](=O)[O-])c2)n(-c2ccccc2)n1,"inconclusive [inhibitor, full curve]"
16,CCNS(=O)(=O)c1ccc(CCC(=O)Nc2cc(Cl)ccc2Oc2ccccc2)cc1,active: 10 µM
17,COc1c(C)cc(Br)cc1C(=O)Nc1ccc(N2CCN(S(C)(=O)=O)CC2)cc1,inactive
18,COc1ccc2c(-c3cnc(N4CCOCC4)nc3)c(-c3ccc(S(C)(=O)=O)cc3)sc2c1,"inconclusive [inhibitor, single point]"
19,Cc1nn(-c2ccccc2)c(N2CCCC2)c1/C=N/NC(=O)c1cc(-c2cccnc2)nc2ccccc12,active: 14.1 µM
20,O=C(CCCn1nnc(-c2cccnc2)n1)c1ccc(F)cc1,"inconclusive [inhibitor, single point]"
21,CCOC(=O)c1c(C)oc2ccc(OC(=O)COc3c(F)c(F)c(F)c(F)c3F)cc12,"inconclusive [inhibitor, single point]"
22,COc1ccc(NC(=O)c2cc(-c3ccccn3)nc3ccccc23)cc1S(=O)(=O)N(C)C,"inconclusive [inhibitor, partial curve, poor fit]"
23,N#Cc1c(N2CCOCC2)nc(-c2ccco2)c2c1CCCC2,"inconclusive [inhibitor, full curve, poor fit]"
